Experimental data reported in PubChem BioAssay AID1030 (National Center for Advancing Translational Sciences (NCATS), 2008).
In all, about 220,000 compounds went through this assay and about 16,000 (7.3%) were called active. This list was built around the results that the source calls inconclusive (neither active nor inactive); the mix of calls is not that of the screen. The call rests on the fitted dose curve; in most records, active means well fitted inhibition curve with a large enough effect (not every such curve was filed as active); inconclusive means small, poorly fitted or top-dose-only effect, or another doubt; inactive means no such curve, though single readings can be large or run the other way. Potencies of inconclusive entries are doubtful fits and often do not repeat.

What follows are compounds tested against Aldehyde dehydrogenase 1A1 (Homo sapiens) (UniProt P00352) (assay: qHTS Assay for Inhibitors of Aldehyde Dehydrogenase 1 (ALDH1A1)). Conditions: Purified ALDH1A1, NADH fluorescence, propionaldehyde substrate; series mostly up to 75.3 µM.
Potency means the concentration at half of the fitted maximal effect; tags describe the fitted curve by direction and shape.

UniProt P00352, sequence (P00352 whole entry, looked up): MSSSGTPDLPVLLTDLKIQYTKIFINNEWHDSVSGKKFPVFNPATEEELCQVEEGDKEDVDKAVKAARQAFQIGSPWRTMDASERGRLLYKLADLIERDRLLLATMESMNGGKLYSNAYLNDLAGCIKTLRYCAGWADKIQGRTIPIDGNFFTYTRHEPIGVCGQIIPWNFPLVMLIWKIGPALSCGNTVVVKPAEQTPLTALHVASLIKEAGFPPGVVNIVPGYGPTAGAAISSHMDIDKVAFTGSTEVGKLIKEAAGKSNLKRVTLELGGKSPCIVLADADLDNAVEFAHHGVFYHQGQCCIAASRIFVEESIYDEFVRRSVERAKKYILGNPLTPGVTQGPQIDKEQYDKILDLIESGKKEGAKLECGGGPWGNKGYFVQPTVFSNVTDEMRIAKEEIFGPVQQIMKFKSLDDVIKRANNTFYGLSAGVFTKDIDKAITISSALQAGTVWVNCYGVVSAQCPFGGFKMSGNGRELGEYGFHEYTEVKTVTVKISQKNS

Potency, active:
CCN(Cc1ccccc1)C(=O)c1ccc(CNS(=O)(=O)c2ccc(C)cc2)cc1 2 µM
COc1cc(Cl)c(C)cc1NC(=O)COC(=O)c1cc[n+]([O-])cc1 15.8 µM
COc1ccc(NS(=O)(=O)c2ccc(NS(=O)(=O)c3ccc(C)cc3)cc2)nn1 12.6 µM
O=C(NCc1cccs1)C1CCC(CNS(=O)(=O)c2cccc3nsnc23)CC1 (stereo unspecified) 22.4 µM
O=C(Nc1cc(Cl)ccn1)C1CCN(S(=O)(=O)c2cccs2)CC1 8.91 µM
Cc1[nH]n(-c2ccccc2)c(=O)c1C(C[N+](=O)[O-])c1ccc(Cl)cc1 (stereo unspecified) 20 µM
O=C(NCCN1CCN(c2ccccc2)CC1)c1ccc(NC(=O)C2CCCO2)cc1 (stereo unspecified) 28.2 µM
N#Cc1cccc(CS(=O)(=O)c2nnnn2C2CCCCC2)c1 25.1 µM
CC1CC(C)CN(CCCSc2ccccc2)C1 (stereo unspecified) 23.8 µM
Cc1cccc(C(=O)N[C@H](C(=O)Nc2ccc(S(=O)(=O)NC3=NCCCCC3)cc2)C(C)C)c1 20 µM
CCn1c(SCC(=O)NCc2ccco2)nnc1-c1cccs1 8.91 µM
CC1(C)CC(=O)C(Sc2ccccc2)=C(O)C1 20 µM

Potency, inconclusive:
COC(=O)Nc1sc2c(c1C(=O)NC1CC1)CCCCCC2 39.8 µM [inhibitor, single point]
Cc1ccc(SCC(=O)NCCC2=CCCCC2)cc1 35.5 µM [inhibitor, single point]
N/C(Cc1ccc([N+](=O)[O-])cc1)=N\OC(=O)CC1CCCCC1 39.8 µM [inhibitor, single point]
CCOC(=O)c1[nH]c(COC(=O)c2ccccc2NC(=O)c2ccco2)c(C(=O)OCC)c1C 31.6 µM [inhibitor, partial curve]
CC1CCN(c2ccc([N+](=O)[O-])cc2C(N)=O)CC1 25.1 µM [inhibitor, partial curve]
COc1ccc(N(CC(=O)NCCC2=CCCCC2)S(C)(=O)=O)cc1 39.8 µM [inhibitor, single point]
Cc1ccc2c(c1)nnn2C1CCN(S(=O)(=O)c2ccc(C(=O)N(C)C3CCCCC3)cc2)CC1 3.55 µM [inhibitor, full curve]
O=C(c1ccco1)N1CCN(c2nc3ccccc3n3nnnc23)CC1 31.6 µM [inhibitor, single point]
N#Cc1cc2c(=O)n3ccccc3nc2n(-c2ccc(Cl)cc2)c1=O 35.5 µM [inhibitor, partial curve]
COCCCNCCOc1ccc(C)cc1[N+](=O)[O-] 39.8 µM [inhibitor, single point]
COc1cccc(/C=N/n2c(=S)n(C)c3ccccc32)c1OC 44.7 µM [inhibitor, single point]
Cc1cccc(NC(=O)CCSc2nnc(Cc3ccccc3)o2)c1 39.8 µM [inhibitor, single point]
CC(Cc1cccs1)NC(=O)Nc1ccc(Cl)c(Cl)c1 (stereo unspecified) 8.91 µM [inhibitor, single point]
CCC(C)NC(=O)CCC(=O)Nc1ccc2nc(N3CCOCC3)cc(C)c2c1 (stereo unspecified) 28.2 µM [inhibitor, partial curve]
O=C(NNC1=NC2(CCCC2)Cc2ccccc21)c1cccnc1 31.6 µM [inhibitor, single point]
Cc1ccc(-c2cc(N)n3nc(-c4ccc(C)cc4)cc3n2)cc1 37.7 µM [inhibitor, single point]
Cc1ccc(Nc2c(-c3ccc(N(C)C)cc3)nc3ncccn23)cc1 22.4 µM [inhibitor, single point]
O=C1NC(=O)C2C1C(c1ccc([N+](=O)[O-])cc1)=NN2Cc1ccccc1 (stereo unspecified) 14.1 µM [inhibitor, partial curve]
COc1ccccc1/C=N/Nc1nccnc1Cl 44.7 µM [inhibitor, single point]
COc1ccc(-n2ccc(=O)c3c2CCCC3=O)cc1 31.6 µM [inhibitor, single point]
CNS(=O)(=O)c1ccc(OC)c(-c2nnc3c4ccccc4c(C)nn23)c1 35.5 µM [inhibitor, single point]
CCOC(=O)C1=C(CC)NC2=C(C(=O)CCC2)C1c1ccc(OC)c(OC)c1 (stereo unspecified) 39.8 µM [inhibitor, single point]
CCCCn1c(=O)[nH]c(=O)c2c1nc(-c1ccccc1F)n2Cc1ccccc1 31.6 µM [inhibitor, partial curve]
CCN1CCN(c2ncc(C(=O)Nc3c(F)cc(F)cc3Br)c3ccccc23)CC1 23.8 µM [inhibitor, partial curve]
Cc1ccc(C2C=C(c3ccc4c(c3)OCO4)Nc3ncnn32)cc1 (stereo unspecified) 39.8 µM [inhibitor, single point]
CC(=O)C1=C(C)OC(N)=C(C#N)C1c1ccco1 (stereo unspecified) 39.8 µM [inhibitor, single point]
CCn1c(=O)c(C(=O)CN2CCc3ccccc32)c(N)n(Cc2ccccc2)c1=O 37.7 µM [inhibitor, single point]
CN(C)C(=O)c1ccc(-c2ccc3ncnc(NC4CCNCC4)c3c2)cc1 31.6 µM [inhibitor, single point]
C#Cc1ccc(C(=O)Nc2cc(C(N)=O)ccc2N2CCOCC2)cc1 20 µM [inhibitor, partial curve, poor fit]
Cc1ccc(-c2nc3ccccc3n2C)o1 28.2 µM [inhibitor, partial curve]
CCc1ccc(C2NC(C(=O)O)CS2)cc1 (stereo unspecified) 25.1 µM [inhibitor, single point]
CCOC(=O)N1CCC(N2CCN(S(=O)(=O)c3ccc(C)cc3)CC2)CC1 31.6 µM [inhibitor, single point]
CC(C)(C)Nc1c(-c2ccc(O)cc2)nc2ccc(Cl)cn12 31.6 µM [inhibitor, partial curve]
O=C(Nc1ccccc1C(=O)Nc1nnc(C(F)(F)F)s1)c1ccccc1 31.6 µM [inhibitor, partial curve]
CCOC(=O)c1c(NC(=O)CSC2=NN3CCCC(=O)N=C3S2)sc2c1CCCCC2 22.4 µM [inhibitor, partial curve]
Cc1ccc(-c2c(C)sc(=NC(=O)c3ccco3)n2C)cc1 37.7 µM [inhibitor, single point]
CCN(CC)c1c([N+](=O)[O-])ncn1C 25.1 µM [inhibitor, single point]
CCCc1cc(NCc2ccccn2)n2c(nc3ccccc32)c1C#N 31.6 µM [inhibitor, partial curve]
CCCCN1Cc2c(nc3cc(-c4ccco4)[nH]n3c2=O)C1=O 23.8 µM [inhibitor, partial curve]
O=C(Nc1ccccn1)c1ccc2ccccc2n1 25.1 µM [inhibitor, single point]
O=C(CSc1nnc(Cc2cccs2)n1-c1ccc(Cl)cc1)NCc1ccc2c(c1)OCO2 8.91 µM [inhibitor, partial curve]
COc1cccc(CNCCSc2nnnn2C)c1 44.7 µM [inhibitor, single point]
COc1ccc(-c2nn(C)c(=O)c3ccccc23)cc1NC(=O)Cn1nc(-c2ccccc2)c2ccccc2c1=O 20 µM [inhibitor, partial curve, poor fit]

Potency, inactive:
Fc1ccc(N2CCN(C(=S)NCC3CCCO3)CC2)cc1 (stereo unspecified)
CNS(=O)(=O)/C=C/c1ccccc1
Cc1ccc(CS(=O)(=O)CCC(=O)O)cc1
N#Cc1c(NC(=O)CSc2nc(N)cc(=O)[nH]2)sc2c1CCCC2
Cc1cc(Cl)ccc1NC(=S)NCc1ccc(Cl)cc1
Cc1ccc(S(=O)(=O)CCSc2nccn2C)cc1
CCOc1ccc(/C=N/NC(=O)CSc2n[nH]c(=O)[nH]c2=O)cc1OC
CC1Cc2ccccc2N1CC(=O)NC(=O)NC1CCCCC1 (stereo unspecified)
COc1ccc(/C=C2\N=C(SC)NC2=O)cc1
Cc1noc2ncnc(Oc3ccc(Cl)cc3Cl)c12
CCc1nc2cc(CC(=O)O)ccc2o1
COc1ccccc1CNC(=O)CN1C(=O)CSc2ccc(S(=O)(=O)N3CCCC3)cc21
COc1ccc(Cn2c(CCCO)nc3ccccc32)cc1OC
CC(=O)Nc1cccc(NC(=O)c2cc(-c3cccnc3)nc3ccc(Br)cc23)c1
Oc1cccc(CN2CCCCC2)c1
CC(/C=N/N1CCN(c2ccc(C)cc2)CC1)=C\c1ccccc1
COC(=O)C(C)Sc1ncnc2c1nnn2-c1ccc(F)cc1 (stereo unspecified)
COc1ccccc1NC(=O)c1ccc(-n2cccn2)nc1
Cc1cc(CO)nn1-c1ccc([N+](=O)[O-])cc1
CCOC(=O)/C(=C/c1ccccc1)NC(=O)c1ccco1
O=C(Nc1nnc(C2CC2)s1)c1ccncc1
